This note sets out measurements from US11254722B2, “Recombinant proteins and uses thereof” (ACADEMIA SINICA, priority 2017, dated 2022).

Like-named read-outs stand apart in the source and are kept apart here.

For assay [1], the system named is hep3B cells. As to the kind of experiment: hep3B proliferation assay. The format is cell-based, human. The following applies: Table 10. As to the method:
(§1) For the proliferation assay, cells except for HUVEC were seeded at a density of 1,000 to 6,000 in 96 wells in an assay buffer of DMEM/F12 plus 0.2% BSA and 10 ug/ml transferrin. Chemical inhibitors were added after 16-20 hours after plating; IGF-1 or other growth factors or test chimeras in assay buffer were added at the time of plating or 16-20 hours after plating. 5,000 HUVEC ells were plated in poly-L-lysine coated 96 wells in M199 with 1%/FBS and HEPES. After 3 to 4 days of culture, growth was determined by incubating cells with Alamar blue for 4 to 6 hours and then the fluorescence (RFU) at 544/590 nm was read. For long term proliferation assays, cells were plated in the growth media with 5% or 10% FBS at densities of 500 to 10,000 cells per cm^2 growth area and grown for 7 to 21 days. Inhibitors and effectors were added 1-4 days after plating. Cells were exposed to cisplatin or gemcitabine for two days. Medium was renewed twice weekly. At completion, cells were fixed and then stained with Giemsa.
The human hepatoma cell line hep3B could be stimulated by many growth factors including IGF-1, IGF-2, HGF, bFGF, VEGF, and neuregulin.

Assay [2] has as its target T1, nrgECD (amino acids Ser2-Lys246 of neuregulin beta 1) (Homo sapiens, UniProt Q02297).
T1 construct: Ser2-Lys246 of neuregulin beta 1; purchased R&D Sciences or SinoBiologicals
T1 sequence (Q02297 2-246 isoform Q02297-6): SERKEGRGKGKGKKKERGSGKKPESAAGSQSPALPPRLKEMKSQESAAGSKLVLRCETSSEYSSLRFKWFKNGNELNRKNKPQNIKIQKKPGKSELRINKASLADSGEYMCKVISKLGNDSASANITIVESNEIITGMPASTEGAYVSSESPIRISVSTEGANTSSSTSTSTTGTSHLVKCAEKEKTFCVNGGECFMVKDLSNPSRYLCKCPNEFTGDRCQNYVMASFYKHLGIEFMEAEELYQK
As to the kind of experiment: Biacore binding to nrgECD. The conditions noted are these: immobilized nrgECD. Here is the method: (§2) Biacore binding was performed at David Myszka's laboratory at the University of Utah or at the Genomic Research Center at Academia Sinica. Surfaces of binding protein chimera were made via chemical immobilization on a CM4 chip using standard amine coupling chemistry. […] Excess surface carboxyl activated sites on all four flow cells was blocked using the doubly positively charged species ethylenediamine. Binding experiments (but not immobilizations) in HBS-P (10 mM HEPES pH 7.4, 150 mM NaCl, 0.05% P20), The HBS-P was supplemented with BSA at 0.2 mg/mL, or HBS-P was supplemented with 500 mM NaCl (650 mM NaCl, final concentration). Analytes were also reconstituted in the corresponding buffer. All experiments were performed at 25° C. 1/150 dilutions of phosphoric acid were used to regenerate IGFBP3-Fc surfaces and a sequence of 3 M MgCl2 followed by 5 M GuCl was used to regenerate surfaces immobilized with growth factor. Dissociation constants reported below used immobilized binding protein unless noted. Differences between binding constants may be expected between growth factor immobilization and chimera immobilization.
(§3) In this example, erbB4 domain 1 was attached to the N-terminus of the recombinant IGFBP3-Fc or the recombinant IGFBP3-v1v2-Fc.
In general terms: In SPR one partner is held on a chip, and binding of the other changes the refractive index at the surface.

The target of assay [3] is T2, nrgEGF (amino acids Thr176-Lys246 of neuregulin-beta 1) (Homo sapiens, UniProt Q02297).
T2 construct: Thr176-Lys246 of neuregulin-beta 1; purchased R&D Sciences or SinoBiologicals
T2 sequence (Q02297 176-246 isoform Q02297-6): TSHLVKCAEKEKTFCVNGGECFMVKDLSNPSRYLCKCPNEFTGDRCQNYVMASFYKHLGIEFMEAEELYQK
The assay can be described thus: Biacore binding to nrgEGF. Here is the method: as §2, §3

Assay [4] has as its system cancer cells. As to the kind of experiment: In vitro proliferation of cancer cells stimulated by growth factors (Table 8). In kind it is cell-based. As to the method:
as §1
The BP3-fc construct inhibited the proliferation of cancer cells that had been stimulated by IGF-1, IGF-2, neuregulin, HGF, and bFGF.

Assay [5] addresses T3, VEGF (Homo sapiens, UniProt P15692).
T3 construct: purchased R&D Systems
T3 sequence (P15692 27-191 isoform P15692-4): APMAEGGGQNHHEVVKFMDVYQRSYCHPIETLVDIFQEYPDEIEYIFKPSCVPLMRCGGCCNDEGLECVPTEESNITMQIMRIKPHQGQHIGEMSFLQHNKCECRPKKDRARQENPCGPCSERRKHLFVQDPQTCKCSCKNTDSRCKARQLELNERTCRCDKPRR
The assay can be described thus: In vitro proliferation stimulated by VEGF (Table 8). The format is cell-based. Here is the method:
as §1
The BP3-VEGF-trap-fc (including the IGFBP3 domains, the VEGFR1 domain 2 and VEGFR2 domain 3 (VEGF-trap (22)), and human immunoglobulin Fc region) broadened the binding to include VEGF-A, VEGF-B, and placental growth factor (PIGF). This BP3-VEGF-trap chimera could inhibit the proliferation stimulated by IGF-1, IGF-2, neuregulin, PDGF-BB, HGF, bFGF, VEGF-A, and PIGF (see, Table 8).

B1: D3met34: SEQ ID NO: 29; chimera with a met domain (met is the HGF receptor) (protein)
chain: MSEVPVARVWLVLLLLTVQVGVTAG[here about 250 residues without letters]AAASGGGSGGGGSGGGGSGGDPIVYEIHPTKSFISTWWKEPLNIVSFLFCFASGGSTITGVGKNLNSVSVPRMVINVHEAGRNFTVACQHRSNSEIICCTTPSLQQLNLQLPLKTKAFFMLDGILSKYFDLIYVHNPVFKPFEKPVMISMGNENVLEIKGNDIDPEAVKGEVLKVGNKSCENIHLHSEAVLCTVPNDLLKLNSELNIEWKQAISSTVLGKVIVQPDQNFTGSGGGSGGGSTGVECPPCPAPPVAGPSVFLFPPKPKDQLMISRTPEVTCVVVDVSHEDPEVKFNWYVDGVEVHNAKTKPREEQYNSTYRVVSVLTVLHQDWLNGKEYKCKVSNKGLPSSIEKTISKAKGQPREPQVYTLPPSREEMTKNQVSLTCLVKGFYPSDIAVEWESNGQPENNYKTTPPVLDSDGSFFLYSKLTVDKSRWQQGNVFSCSVMHEGLHNHYTQKSLSLSPGK
Consider B1, for which the IC50 was found to be 128 nM in assay [1] (read-out: IC50, FBS-stimulated proliferation of hep3B cells); 14 nM in assay [1] (read-out: IC50, HGF-stimulated proliferation of hep3B cells); 24 nM in assay [1] (read-out: IC50, IGF1-stimulated proliferation of hep3B cells); 149 nM in assay [1] (read-out: IC50, bFGF-stimulated proliferation of hep3B cells); 89 nM in assay [1] (read-out: IC50, nrg-stimulated proliferation of hep3B cells).

B2: IGFBP3-v1v2-Fc: IGFBP3-gly 3 linker-v1v2-Fc, SEQ ID NO: 21 (protein)
chain: MSEVPVARVWLVLLLLTVQVGVTAG[here about 250 residues without letters]APPAPGNASESEEDRSAGIYIFISDTGRPFVEMYSEIPEIIHMTEGRELVIPCRVTSPNITVTLKKFPLDTLIPDGKRIIWDSRKGFIISNATYKEIGLLTCEATVNGHLYKTNYLTHRQGYRIYDVVLSPSHGIELSVGEKLVLNCTARTELNVGIDFNWEYPSSKHQHKKLVNRDLKTQSGSEMKKFLSTLTIDGVTRSDQGLYTCAASSGLMTKKNSTFVRVHEKVECPPCPAPPVAGPSVFLFPPKPKDQLMISRTPEVTCVVVDVSHEDPEVKFNWYVDGVEVHNAKTKPREEQYNSTYRVVSVLTVLHQDWLNGKEYKCKVSNKGLPSSIEKTISKAKGQPREPQVYTLPPSREEMTKNQVSLTCLVKGFYPSDIAVEWESNGQPENNYKTTPPVLDSDGSFFLYSKLTVDKSRWQQGNVFSCSVMHEGLHNHYTQKSLSLSPGK
Usually Kd stands for the constant that tells how readily two partners part at equilibrium. Read a low Kd as a tighter complex. B2 displayed a Kd in assay [2] of 0.18 nM. Moreover, the “Kd nrgEGF” value in assay [3] is on record as “No binding”. Besides, in assay [4], the “inhibition of proliferation stimulated by bFGF” value is recorded as “inh”. Further, the “inhibition of proliferation stimulated by VEGF” value in assay [5] is listed as “inh”.
